# Reference: PubChem BioAssay AID504332 (National Center for Advancing Translational Sciences (NCATS), 2011)
# Values joined by “and” are separate entries in the source; they are usually repeats but may differ in a detail not shown here. Equal entries are not always repeated. Hit rate of the full screen: of about 350,000 compounds, about 31,000 (8.9%) were called active. This list was built around the results that the source calls inconclusive (neither active nor inactive); the mix of calls is not that of the screen. Calls come from the whole dose curve; as a rule, active = well fitted inhibition curve with a large enough effect; inconclusive = small, poorly fitted or top-dose-only effect; inactive = no such curve, though single readings can be large or run the other way. A potency beside an inconclusive call is a rough fit, not a confirmed value. Some compounds were tested as several samples or in several runs, with calls that do not always agree.
# Target: Histone-lysine N-methyltransferase EHMT2 (Homo sapiens) (UniProt Q96KQ7)
# Chain of UniProt Q96KQ7 (Q96KQ7 whole entry, looked up): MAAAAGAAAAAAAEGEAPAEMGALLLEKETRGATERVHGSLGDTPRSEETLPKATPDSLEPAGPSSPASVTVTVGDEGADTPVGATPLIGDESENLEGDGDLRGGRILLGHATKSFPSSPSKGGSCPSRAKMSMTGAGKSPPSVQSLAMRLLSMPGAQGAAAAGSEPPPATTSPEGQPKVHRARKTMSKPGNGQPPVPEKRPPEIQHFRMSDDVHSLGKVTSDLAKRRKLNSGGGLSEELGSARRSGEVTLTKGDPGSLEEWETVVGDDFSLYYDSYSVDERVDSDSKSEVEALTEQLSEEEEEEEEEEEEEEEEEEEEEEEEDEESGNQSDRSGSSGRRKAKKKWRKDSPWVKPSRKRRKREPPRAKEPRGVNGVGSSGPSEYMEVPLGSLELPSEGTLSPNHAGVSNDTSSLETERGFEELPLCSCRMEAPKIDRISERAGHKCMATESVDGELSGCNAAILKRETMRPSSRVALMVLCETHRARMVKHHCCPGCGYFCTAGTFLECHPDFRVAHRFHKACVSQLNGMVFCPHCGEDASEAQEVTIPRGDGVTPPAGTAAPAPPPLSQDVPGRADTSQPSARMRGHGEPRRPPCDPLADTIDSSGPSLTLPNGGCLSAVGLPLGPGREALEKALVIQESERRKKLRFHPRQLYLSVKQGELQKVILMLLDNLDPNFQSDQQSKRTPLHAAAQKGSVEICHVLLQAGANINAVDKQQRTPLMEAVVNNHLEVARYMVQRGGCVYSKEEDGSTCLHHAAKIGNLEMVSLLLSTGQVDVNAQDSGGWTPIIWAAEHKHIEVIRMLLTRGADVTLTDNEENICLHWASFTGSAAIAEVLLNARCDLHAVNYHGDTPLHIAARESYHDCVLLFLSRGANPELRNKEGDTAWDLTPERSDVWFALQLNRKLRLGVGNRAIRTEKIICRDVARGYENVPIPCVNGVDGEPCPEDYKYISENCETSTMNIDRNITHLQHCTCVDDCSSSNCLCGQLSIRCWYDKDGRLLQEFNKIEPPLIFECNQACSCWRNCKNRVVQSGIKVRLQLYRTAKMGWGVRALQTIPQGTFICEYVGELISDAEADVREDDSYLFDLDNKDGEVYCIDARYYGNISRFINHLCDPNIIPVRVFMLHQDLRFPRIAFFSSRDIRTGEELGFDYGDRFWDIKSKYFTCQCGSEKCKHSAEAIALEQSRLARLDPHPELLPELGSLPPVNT
# Assay: qHTS Assay for Inhibitors of Histone Lysine Methyltransferase G9a; note: nearly all actives have a fitted effect of over 75% in size
# Conditions: G9a H3K9 monomethylation, AlphaScreen, 2 h; activity, negative = inhibition: at 59 µM (top of the series) unless noted
# How it was run: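 Chemiluminescent proximity detection of H3K9 monomethylation, read after 10 min bead incubation in the dark. Reaction: 20 nM G9a, 500 nM biotin-H3K9 peptide, 20 uM SAM cofactor, 2 h, room temperature, following 15 min enzyme-compound preincubation.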
# % is set by controls: 0 for no effect and ±100 for the full control effect; potency is the fitted concentration of half-maximal effect; tags give direction and shape of the fitted curve.
SMILES,Potency,"activity, negative = inhibition"
Nn1c(SCC(=O)NNC(=O)c2ccccc2)nnc1-c1ccccc1F,"inconclusive: 89.1 µM [inhibitor, single point]",
Cc1ccn2c(Nc3ccccc3C)c(-c3cccnc3)nc2c1,"inconclusive: 25.1 µM [inhibitor, partial curve, poor fit]",
CCN(CC)c1ccc(C=Nc2cc(C)ccc2C)c(O)c1,"inconclusive: 39.8 µM [inhibitor, single point]",
CCn1c(C)nc2cc(C(=O)N/N=C/c3ccccc3C)ccc21,"inconclusive: 0.794 µM [inhibitor, full curve, poor fit]",
O=C(Cc1ccccc1)NCC(=O)OCC(=O)c1cccc([N+](=O)[O-])c1,"inconclusive: 89.1 µM [inhibitor, partial curve, poor fit]",
CN(C)CCNC(=O)c1cc2c(s1)-c1ccccc1OC2,"inconclusive: 89.1 µM [inhibitor, partial curve, poor fit]",
Nc1no[n+]([O-])c1-c1ccccc1,"inconclusive: 20 µM [inhibitor, full curve]",
O=C(CSc1ccc2nnc(-c3cccc(F)c3)n2n1)NCC1CCCO1 (configuration not stated),active: 5.01 µM,
COC(=O)C1NN=C(C(=O)c2ccc(Cl)cc2)C1c1ccc(OC)cc1 (configuration not stated),,inactive: -26.5% [at 102 µM]
CCOC(=O)c1cc(CN2CCOCC2)oc1-c1ccccc1,"inconclusive: 63.1 µM [inhibitor, single point]",
Cc1ccc(NC(=O)CN(C)C(=O)CSc2nc(C)cs2)cc1,"inconclusive: 50.1 µM [inhibitor, partial curve]",
CNCCC(Oc1ccccc1C)c1ccccc1 (configuration not stated),active: 21.2 µM,
O=C(COc1ccc(Br)cc1)OCCN1CCCCC1,,inactive: -37.1% [at 102 µM]
COc1cccc(NC(=S)/C(=C(\[O-])c2ccc([N+](=O)[O-])cc2)[n+]2ccccc2)c1,active: 44.7 µM,
CCC(C)c1ccc(NC(=S)NCc2ccccn2)cc1 (configuration not stated),"inconclusive: 44.7 µM [inhibitor, partial curve, poor fit]",
CC1=C(C#N)C(c2ccc3ncccc3c2)C(C#N)=C(C)N1,"inconclusive: 3.55 µM [inhibitor, partial curve, poor fit]",
CCCCOc1ccc(C(=O)NCC(=O)NC2CCN(Cc3ccccc3)CC2)cc1,"inconclusive: 50.1 µM [inhibitor, partial curve, poor fit]",
Cc1ccc(C2c3[nH]c4ccccc4c3CCN2C(=O)CCc2ccccc2)cc1 (configuration not stated),,inactive: -31.3%
C=CC1=C(C(=O)O)N2C(=O)C(NC(=O)Cc3ccccc3)C2SC1 (configuration not stated),"inconclusive: 3.16 µM [inhibitor, single point]",
O=C(C1CCN(S(=O)(=O)c2cccc3cccnc23)CC1)N1CCN(C2CCCCC2)CC1,active: 35.5 µM,
CNS(=O)(=O)c1cc(NC(=O)CCCNC(=O)c2ccc(Cl)cc2)ccc1C,"inconclusive: 89.1 µM [inhibitor, single point]",

SMILES,Potency,"activity, negative = inhibition"
C=CCn1c(Cc2c[nH]c3ccccc23)n[nH]c1=S,active: 6.31 µM,
Fc1ccc(Nc2c(-c3ccco3)nc3ccccn23)cc1,"inconclusive: 35.5 µM [inhibitor, single point] and inconclusive: 28.2 µM [inhibitor, single point]",
O=C(CC(NCc1cccnc1)C(=O)O)Nc1ccc(O)cc1 (configuration not stated),"inconclusive: 8.91 µM [inhibitor, partial curve, poor fit]",
COc1ccc(NC(=O)CCC(=O)NCc2ccco2)c([N+](=O)[O-])c1,,inactive: 16.3%
COc1ccc(/C=C2\SC(=S)N(NC(=O)c3csc4c3CCCC4)C2=O)cc1,"inconclusive: 50.1 µM [inhibitor, partial curve, poor fit]",
O=C(NC1CCCCC1)c1ccc2c(c1)OCO2,"inconclusive: 11.2 µM [inhibitor, partial curve, poor fit]",
CC(C)(CO)NC(=S)NCc1ccco1,active: 39.8 µM,
Cc1[nH]n2c(=O)c3c(nc2c1-c1ccccc1)CCC3,"inconclusive: 2.82 µM [inhibitor, partial curve, poor fit]",
O=C(CSc1ccccn1)Nc1ccc2c(c1)C(=O)c1ccccc1C2=O,"inconclusive: 31.6 µM [inhibitor, single point]",
CCOc1ccc(C2/C(=C(\O)c3cccc(OC)c3)C(=O)C(=O)N2c2ccccn2)cc1OC (configuration not stated),"inconclusive: 89.1 µM [inhibitor, single point]",
COc1ccc(OCc2cc(C(=O)N3CCC(OC)CC3)no2)c2ccccc12,"inconclusive: 39.8 µM [inhibitor, partial curve, poor fit]",
Cc1ccc(NC(=O)Cn2cnc3sc(C(=O)NCc4ccco4)c(C)c3c2=O)cc1Cl,"inconclusive: 0.501 µM [inhibitor, partial curve, poor fit]",
O=C1C(=O)N(Cc2ccco2)C(c2cccc(Cl)c2)/C1=C(\O)c1ccc2c(c1)OCCO2 (configuration not stated),"inconclusive: 28.2 µM [inhibitor, single point]",
Oc1cc(Nc2ccccc2)cc2cccnc12,,inactive: 19.2% [at 12.7 µM]
CC(=O)NS(=O)(=O)c1ccc2c(c1)Cc1cc(S(=O)(=O)NC(C)=O)ccc1-2,,inactive: -3.76% [at 0.501 µM]
Cc1nnc(Nc2ccccn2)c2ccccc12,"inconclusive: 39.8 µM [inhibitor, single point]",
CCN(CC)CCn1c2c(c(SCC(=O)Nc3nc(C)cs3)nc1=O)CCCC2,"inconclusive: 50.1 µM [inhibitor, partial curve, poor fit]",
NC(=O)Cn1cnc2nc3n(c2c1=O)CCC3,"inconclusive: 39.8 µM [inhibitor, single point]",
CCCCC(=O)Nc1nc(C)c(-c2csc(Nc3ccccc3OC)n2)s1,"inconclusive: 17.8 µM [inhibitor, partial curve, poor fit]",
C=C(C)C1CC=C(CN2CCC(C(=O)OCC)CC2)CC1 (configuration not stated),"inconclusive: 8.91 µM [inhibitor, partial curve, poor fit]",
NC(=S)Cc1nc(-c2ccccc2)cs1,"inconclusive: 4.47 µM [inhibitor, full curve, poor fit]",
